In all, about 150,000 compounds went through this assay and about 540 (0.36%) showed an effect of 50% or more. Some of the results follow.
These compounds were tested on Plasmodium falciparum (assay: Primary screen in NF54 nanoGlo assay, in single point, at 2uM, 72h; a lower Z score goes with more inhibition). Details: timepoint 72 hour.
Assay type: functional, Erythrocyte

Compound	% Inhibition [%]	Z score
Cn1cccc1C(=O)N1CCC2(CC1)c1nc[nH]c1CCN2C(=O)C1CCC1	14	-2.5
O=C(NCCc1ccncc1)c1cccc(S(=O)(=O)N2CC[C@@H](O)C2)c1	-9	1.1
C=CCn1cc(-c2cc(-c3[nH]c(C)c(C(=O)O)c3C)nc(N)c2C#N)cn1	-1	0.18
CC(C)Oc1cc(N(C)CCc2cn[nH]c2)nc(N)n1	-1	0.1
COc1ccc(C2CN(C(=O)c3ccc(C)cc3)CC2C(=O)NCc2ccccn2)c(OC)c1 (centres undefined)	-13	1.87
COc1ccccc1NC(=O)CN1CCC2(CC1)NC(=O)N(C)C2=O	-9	1.78
Cc1ccc2cc(CN3CCC(CNC(=O)c4cccc(C)n4)CC3)c(=O)[nH]c2c1	-1	0.18
COc1ccc([C@@H](NC(=O)COc2ccc(-c3ccccc3)cc2Cl)c2nccn2C)cc1	17	-1.48
CC[C@H]1CCCCN1C(=O)c1cc2c(s1)CCS(=O)(=O)C2	-4	0.62
CC(Cc1ccco1)NC(=O)C1CCS(=O)(=O)C1 (centres undefined)	2	-0.23
Cc1cnn(CCNCC=Cc2ccccc2)c1	0	-0.06
COc1ccccc1OC1(C(=O)O)CCN(Cc2ccc(-c3cc[nH]n3)o2)CC1	-13	1.66
Clc1cnn([C@H]2CCN(Cc3ccc(-c4ccn[nH]4)o3)C2)c1	3	-0.42
COc1ccc(-c2noc([C@H](C)O)c2C(=O)N2CCCN(C(C)=O)CC2)cc1OC	7	-1.23
CCc1noc(C)c1C(=O)O[C@@H](C)C(=O)N1CC(=O)Nc2ccccc21	-54	6.3
Cc1cc(C(=O)NCc2ccccc2CN2CCOCC2)on1	0	0.06
CCC1CN(C(=O)C2CCCN2S(C)(=O)=O)CCO1 (centres undefined)	-3	0.47
CC(C)N(CCOc1cccc(S(C)(=O)=O)c1)C1CCC1	-12	1.59
C=C(C)COc1ccccc1NC(=O)[C@H]1CCCC[C@H]1C(=O)NCCCC	3	-0.57
O=C(NC(Cc1ccncc1)[C@H]1C[C@@H](O)C1)c1cccn1C1CC1 (some centres undefined)	-2	0.34
COc1cc(NC(=O)N2Cc3ncccc3N3CCC[C@H]3C2)n[nH]1	4	-0.71

Compound	% Inhibition [%]	Z score
Cc1c(C(=O)N(Cc2ccccc2)CC2(O)CCCC2)cnn1C	0	-0.07
N#Cc1ccc(N2CCOC3CCCC32)c(F)c1 (centres undefined)	6	-0.64
C=CCN(CC(=O)O)C(=O)c1cc(C)cc(F)c1	-14	1.69
CC(NCc1ccc(Br)c2cccnc12)C1CCOC1 (centres undefined)	-5	0.52
CCN1CCO[C@H](C(=O)NCc2ccccc2CN2CCCCCC2)C1	-4	0.53
COc1ccc(Cl)cc1-n1c(N)c(C(=O)N2CCOCC2)sc1=S	-18	2.42
c1ccc(-c2nc(CN3CCC[C@H]3c3cccs3)co2)cc1	1	-0.21
COc1ccc(NC(=O)C2CCN(S(=O)(=O)Cc3ccccc3)CC2)cc1	-10	1.97
CCC(C)(C)c1ccc(OCC(N)=O)cc1	-13	1.78
O=C(NCC1CCN(CC(=O)N2CCc3ccccc32)CC1)c1cnccn1	-7	0.87
Cc1cccc(Cn2nc3c(S(=O)(=O)N4CCCCC4)cccn3c2=O)c1	-3	0.43
CC(O)CC(C)NC(=O)C1COC(C)C1 (centres undefined)	-4	0.59
OCCOc1ccccc1CN1CCc2[nH]cnc2[C@H]1c1ccncc1	-9	1.22
O=C1CC[C@@H]2CN(Cc3ccccc3C(F)(F)F)CC[C@@H]2N1Cc1ccc2c(c1)OCO2	8	-0.97
Cc1nc(CN2CCC[C@@](O)(CNC(=O)c3ccccc3F)CC2)co1	-5	0.64
CCc1ccc(CC)c(NC(=O)N(C)CC2(O)CCOCC2)c1	-9	0.9
CC(C)CS(=O)(=O)CC(=O)N1CCC2CCCC21 (centres undefined)	-7	0.93
CC(=O)Nc1ccc(-c2sc(-c3ccc(NC(C)=O)cc3)c(-c3ccccc3)c2-c2ccccc2)cc1	-8	1.18
CC(=O)N[C@@H](C)C(=O)Nc1nc2ccccc2n1C1CCCC1	-8	0.85
Cn1nccc1-c1cn([C@H]2CCOC2=O)nn1	-8	1.1
CC(C)C[C@H]1CN(C)CCN1C(=O)c1cc(-c2ccccn2)no1	-5	0.72

From ChEMBL document CHEMBL4888484, “Replenishing the malaria drug discovery pipeline: Screening and hit evaluation of the MMV Hit Generation Library 1 (HGL1) against asexual blood stage Plasmodium falciparum ,using a nano luciferase reporter read-out” (2022)
